The structures appear in SMILES notation. Screen size: about 340,000 compounds; about 6,900 (2%) were called active. Cut-off read from the data, not from the text of the source: active = inhibition above about 30%; inactive = below that, where a call was filed. Only a part is listed here, and it is no random draw. The source gives no active or inactive call for entries shown without one.

Sequence of UniProt P14416 (P14416 whole entry, looked up): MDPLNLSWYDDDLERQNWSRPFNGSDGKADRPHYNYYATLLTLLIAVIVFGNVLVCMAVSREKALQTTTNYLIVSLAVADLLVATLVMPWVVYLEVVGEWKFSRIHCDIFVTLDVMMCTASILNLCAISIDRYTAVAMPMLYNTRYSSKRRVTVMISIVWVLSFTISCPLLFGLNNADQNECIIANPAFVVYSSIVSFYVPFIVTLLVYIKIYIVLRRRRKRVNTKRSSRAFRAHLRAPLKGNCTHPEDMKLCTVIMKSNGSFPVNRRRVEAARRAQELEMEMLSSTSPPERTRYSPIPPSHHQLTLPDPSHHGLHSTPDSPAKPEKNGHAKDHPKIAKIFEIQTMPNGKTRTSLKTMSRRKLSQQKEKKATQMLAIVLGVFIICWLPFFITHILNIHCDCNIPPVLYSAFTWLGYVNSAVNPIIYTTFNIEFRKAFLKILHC

The target in this assay is D(2) dopamine receptor (Homo sapiens) (UniProt P14416). In words: HTS Assay for Allosteric Antagonists of the Human D2 Dopamine Receptor: Primary Screen for Antagonists. Note: 0% is about no effect. Particulars: HEK293 TREx D2 cells, calcium flux, dopamine EC80; at 10 µM; stronger effect = higher value. The gist of the method:
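Measurement of antagonist activity uses fluorescent calcium dye in inducible HEK293 T-REx D2 cells: 10 s baseline, compound addition with 180 s read, EC80 dopamine addition with a further 180 s read.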
(A change in cytosolic calcium serves as a functional read-out for many receptors and channels.)
The term inhibition denotes the relative decrease from the control value, in per cent. `CC(C)c1ccccc1NC(=O)Cn1cnc2c1c(=O)n(C)c(=O)n2C`: the inhibition stood at 11.6%.
The same measure for `COc1ccc(CCNC(=O)CS(=O)(=O)Cc2nc(-c3cccc(Cl)c3)oc2C)cc1OC`: -4.37%.
The same measure for `COc1ccc(-c2cc(C(=O)NCCc3ccccc3)c3c(-c4ccc(Cl)cc4)[nH]nc3n2)cc1`: 6.96%; for `COc1ccc(CNC(=O)c2cccn2-c2nnc(N3CCCCC3)s2)c(OC)c1`: 18.8%; for `Cc1cccc(N2C(=O)N(Cc3cccc(C#N)c3)c3ccccc3S2(=O)=O)c1`: 7.73%.
Take `Cc1ccc(CSc2nc3ccncc3n2Cc2nc(-c3ccccc3C)oc2C)cc1`: the inhibition was -2.23%.
The same measure for `O=C(CCS(=O)(=O)c1cc(Br)cc2c1N(C(=O)C1CC1)CC2)N1CCN(c2cccc(C(F)(F)F)c2)CC1`: 12%; for `O=C(Cn1c(=O)n(Cc2ccc(C(=O)NCc3ccc4c(c3)OCO4)cc2)c(=O)c2ccccc21)Nc1ccccc1F`: 14.3%; for `CCCNC(=O)c1c(NC(=O)c2ccccc2)sc2c1CCC(C(C)(C)C)C2` (stereo not drawn): -6.55%.
Turning to `CCOC(=O)c1c(-c2ccccc2)oc2ccc(OCc3cccc(Br)c3)cc12`, the inhibition amounted to 10.2%.
The same measure for `O=C(Cn1cc(C(=O)c2cccs2)c2ccccc21)Nc1ccc(Br)cc1`: 4.97%.
The same measure for `CCN(c1cccc(C)c1)S(=O)(=O)c1c(C)nc2sc(C)cn2c1=O`: -7.5%; for `O=C1CCSC2(C(=O)N(Cc3ccc(F)cc3)c3ccccc32)N1c1cccc(F)c1` (stereo not drawn): 5.75%.
The figure for `COc1ccc(CNC(=O)CN(C)S(=O)(=O)c2ccc3c(c2)c(=O)n(C)c(=O)n3C)cc1` is -7.07%.
For the compound `COc1ccc(C(=O)Oc2cc(-c3ccc(OC)c(OC)c3)cc(=O)c3c(C)oc(C)c23)cc1`, the inhibition was -8.77%.
The figure for `CCSc1nc2ccccc2c(OCc2cc(C(=O)OC)ccc2OC)c1C(=O)OC` is -5.86%; for `COC(=O)c1c(C)sc(-c2c(-c3ccc(OC)c(F)c3)[nH]c3c2c(=O)n(C)c(=O)n3C)c1O` it is -11.6%.
The same measure for `CC(C)C(=O)Nc1nnc(S(=O)(=O)N2c3ccccc3CC2C)s1` (stereo not drawn): -3.58%.
`CCCOc1cccc(C(=O)Nc2cccc(NC(=O)c3ccc(Cl)cc3Cl)c2)c1`: the inhibition is 2.88%.
The same measure for `Cc1ccc(C(C)C)c(OCC(=O)Nc2ccc(O)c(-c3nc4cc(Cl)ccc4o3)c2)c1`: -15.3%; for `COCC(=O)Nc1cc(C(=O)Nc2ccccc2C)ccc1Cl`: active: 31.5%; for `Cc1ccc(NC(=O)CN2C(=O)CC(c3ccc(C)c(C)c3)=Nc3ccccc32)cc1`: -7.79%.
The same measure for `COc1cc(CN(C)CCc2ccccc2)ccc1OCc1ccccc1`: active: 36.3%; for `Cc1cccc(C)c1OC(=O)CSc1nnc(-c2ccc3c(c2)OCO3)o1`: 6.32%; for `CCC(CC)C(=O)Nc1cc(-c2nc3cccnc3s2)ccc1C`: -13.9%.
The same measure for `CCOC(=O)Cn1c(=O)oc2cc(S(=O)(=O)N3CCN(c4ccc(F)cc4)CC3)ccc21`: 23.1%; for `COc1ccc(Nc2c(-c3ccsc3)nc3nc(C)cc(C)n23)cc1`: 2.91%.
In the case of `COc1ccc(CCNC(=O)c2c(C)oc3ncn(CC(C)C)c(=O)c23)c(OC)c1`, the inhibition was -0.787%.
The figure for `COc1ccc(NC(=O)CC(C)S(=O)(=O)c2cc3c(cc2C)NC(=O)CO3)cc1OC` (stereo not drawn) is 0.39%; for `O=C(Nc1nnc(S(=O)(=O)N2CCCCCC2)s1)c1ccc(Cl)cc1` it is 19%.
The figure for `CCCC(=O)Nc1nc2nc(-c3ccccc3)cc(=O)n2[nH]1` is active: 31.8%.
Regarding `COc1ccccc1CNC(=O)C1CCN(c2nnc(C)c3c(C)n(-c4ccccc4)nc23)CC1`, the inhibition is -7.41%.
Regarding `CC(C)CC(=O)OCc1cc(=O)n2nc(C3CCCCC3)sc2n1`, the inhibition is 9.4%.
The figure for `Cn1cccc1Cc1nnc(SCC(=O)NC2CCCC2)n1-c1ccc(F)cc1` is active: 36.2%.
In the case of `COCCCNC(=O)c1ccc(Cn2c(=O)c3cccn3c3cccnc32)cc1`, the inhibition is 2.72%.
With `COc1ccc(C(CC(=O)Nc2ccc(Br)cn2)N2Cc3ccccc3C2=O)cc1` (stereo not drawn), the inhibition was -8.3%.
The figure for `Cc1nn(CC(=O)NCc2ccc(N(C)C)cc2)c(=O)c2nn(-c3ccccc3)c(C)c12` is -4.2%; for `COc1ccccc1CCNC(=O)C1CCN(c2nnc(C)c3c(C)n(-c4ccc(C)cc4)nc23)CC1` it is -3.59%.
The same measure for `C/C(=N\NC(=O)CN(c1ccccc1)S(C)(=O)=O)c1ccccc1O`: active: 43.9%; for `O=[N+]([O-])c1ccc(O)c(-c2ccnc3cc(-c4ccccc4)nn23)c1`: 3.25%.
The same measure for `Cc1ccc(Cn2c(CN3CCN(c4cccc(Cl)c4)CC3)nc3c2c(=O)n(C)c(=O)n3C)cc1`: -13.5%; for `Cn1c(C(=O)NCc2cccc(Cl)c2)cc2oc3ccccc3c21`: -2.81%; for `CC(=O)c1ccc(N2CCN(C(=O)CCCn3c(=O)[nH]c4ccsc4c3=O)CC2)cc1`: -9.21%.
`CC(C)OC(=O)c1c(NC(=O)CCn2nnc3ccccc32)sc2c1CCCC2`: the inhibition is active: 36.7%.
The figure for `C=C(C)[C@@H]1CC[C@]2(C(=O)O)CC[C@]3(C)[C@H](CC[C@@H]4[C@@]5(C)CC[C@H](O)C(C)(C)[C@@H]5CC[C@]43C)[C@@H]12` is active: 36.4%.
With `Cc1nn2c(=O)cc(COC(=O)c3ccc(NC(=O)COc4ccccc4F)cc3)nc2s1`, the inhibition came to 17.4%.
On to `COc1ccc(CNC(C)CCc2ccccc2)cc1` (stereo not drawn), for which the inhibition was active: 61.5%.
The figure for `Cc1nc2c(c(C)nn2C(C)(C)C)c(C)c1CCC(=O)Nc1ccc(F)cc1` is -5.43%; for `Cc1ccc2oc(C(=O)Nc3sc4c(c3C(=O)NCc3ccco3)CCC4)cc(=O)c2c1` it is 6.24%; for `Cc1ccc(CNC(=O)Cn2c3ncccc3c(=O)n2-c2ccc(C)cc2)cc1` it is 4.3%.
The figure for `CN1CCN(c2nc(Nc3ccccc3)nc(N)c2[N+](=O)[O-])CC1` is active: 82.6%; for `CC(C)c1cc(-c2nc(-c3cccc(Cl)c3)no2)n[nH]1` it is -2.11%; for `COc1ccccc1N1CCN(c2cc(C)nc3nncn23)CC1` it is 0.641%.
The figure for `CCOc1ccc(CNC(=O)CSc2c3c(nc4ccc(Cl)cc24)CCCC3)cc1` is 5.99%; for `COc1ccc(C)c2sc(N3CCN(C(=O)c4ccco4)CC3)nc12` it is -24.4%; for `COc1ccccc1CNC(=O)c1ccc2c(c1)N(Cc1c(F)cccc1Cl)C(=O)CS2` it is -12.5%.
In the case of `Cc1cc(C)cc(NC(=O)c2cc(S(=O)(=O)N3CCc4ccccc43)cn2C)c1`, the inhibition was -8.22%.
The same measure for `O=C(Nc1ccc2oc(-c3cccc(F)c3)nc2c1)c1ccc2ccccc2c1`: -2.04%.
Regarding `CC(C)c1ccc(NC(=O)Cn2cc(S(=O)(=O)Cc3ccccc3Cl)c3ccccc32)cc1`, the inhibition is -0.847%.
The figure for `COc1cccc(NC(=O)Cn2c(=O)n(CCCCC(=O)NCc3ccccc3Cl)c(=O)c3ccccc32)c1` is -24.5%; for `O=C(CSc1ncc(S(=O)(=O)c2ccc(Br)cc2)c(=O)[nH]1)Nc1ccc2c(c1)OCCO2` it is -14.2%.
The same measure for `CCCCC(Sc1nc2cc3c(cc2c(=O)n1CCCC(=O)NCc1ccc2c(c1)OCO2)OCO3)C(=O)OCC` (stereo not drawn): 23.5%; for `CCOc1ccccc1N1CCN(S(=O)(=O)c2ccc(C3CCCCC3)cc2)CC1`: 3.23%.
As to `CC1CCN(C(=O)CSc2nc3ccccc3nc2Cc2ccccc2)CC1`, the inhibition amounted to 12.2%.
On to `CCC(=O)N1CCc2cc(S(=O)(=O)Nc3cc(C)ccc3OC)ccc21`, for which the inhibition was determined as 14.4%.
For `Cc1ccc(-n2c(SCC(=O)c3ccccc3)nc3c([nH]c4ccccc43)c2=O)cc1`, the inhibition is -20.9%.
The same measure for `CC(C)C(=O)Nc1ccc2nc(SCC(=O)N3CCc4ccccc43)sc2c1`: -9.27%; for `COc1ccc(-c2csc3ncnc(Nc4cc(OC)cc(OC)c4)c23)cc1`: 3.96%.
The same measure for `COc1ccccc1CC(=O)Nc1ccc2nc(Nc3cccc(Cl)c3)cc(C)c2c1`: 4.13%.
As for `CCOc1ccc(CNS(=O)(=O)c2ccc3c(c2)CCCN3C(C)=O)cc1`, the inhibition is -11.8%.
The same measure for `CC1Cc2cc(S(=O)(=O)CCC(=O)NCc3ccccc3Cl)ccc2N1C(=O)C1CC1` (stereo not drawn): 6.78%; for `Cc1ccc(C)c(NC(=O)C2CCN(c3cc(C)nc4c(-c5ccc(Cl)cc5)c(C)nn34)CC2)c1`: -4.52%.
Regarding `Cc1ccc(F)cc1NC(=O)CN1CCN(c2ccccn2)CC1`, the inhibition is active: 50.3%.
Consider `COc1cccc(NC(=O)Cn2cc(C(=O)c3ccco3)c3ccccc32)c1`, for which the inhibition was found to be 15.8%.
The figure for `COc1ccc(-n2cc(C(=O)Oc3cc(C)cc(C)c3)c3ccccc3c2=O)cc1` is 3.97%; for `CCOc1ccc(CN2C(=O)c3ccccc3C2C(=O)NCCc2ccc(OC)c(OC)c2)cc1` (stereo not drawn) it is 18.6%.
The figure for `CN(C)S(=O)(=O)c1ccc(Cl)c(NC(=O)CN2CCCC2)c1` is active: 35.9%.
The figure for `CCOC(=O)c1c(S(=O)(=O)N2CCC(C(=O)Nc3ccc(F)cc3F)CC2)c(C)n(C)c1C` is 8.54%; for `COc1ccc(Cn2c(CO)cnc2SCc2ccccc2C)cc1` it is 21.6%.
As for `COc1ccc(CNC(=O)Cc2c(C)c3cc4c(C)coc4c(C)c3oc2=O)cc1OC`, the inhibition is -1.58%.
As to `Cc1ccc2oc(=O)c3cnn(CC(=O)N(Cc4ccco4)C4CCCCC4)c3c2c1`, the inhibition is active: 32.4%.
Regarding `CC(C)c1ccc2occ(CC(=O)N(Cc3ccc(F)cc3)C3CCS(=O)(=O)C3)c2c1` (stereo not drawn), the inhibition was -13.1%.
Take `COc1ccc(CCNC(=O)c2ccc3c(c2)ncn3-c2ccc(C(C)C)cc2)cc1OC`: the inhibition came out at 8.92%.
The same measure for `CC(=O)c1ccc(N2CCN(C(=O)Nc3ccc(C(C)C)cc3)CC2)cc1`: 8.97%.
The figure for `O=C(Nc1ccccc1)N(Cc1cccc(Cl)c1)c1ccccn1` is 1.48%; for `Cn1c2ccccc2c2cnn(CC(=O)NCCCN3CCN(c4ccccc4F)CC3)c(=O)c21` it is active: 63.3%.
The figure for `COc1ccc(NC(=O)c2ccco2)cc1NC(=O)c1c(OC)cccc1OC` is -9.01%.
For `COc1ccc(NS(=O)(=O)c2ccc3[nH]c4c(c3c2)CCCCC4)cc1`, the inhibition was 11.1%.
The same measure for `CC(=O)Nc1c(C)nn(-c2ccccc2)c1N1CCC(C(=O)Nc2ccccc2F)CC1`: -8.26%.
The figure for `COc1ccc(Oc2ncc(CN3CCN(c4ccccc4)CC3)s2)cc1` is active: 76.3%; for `COc1ccc(NC(=O)CCc2nnc3n(Cc4ccc(C)cc4)c(=O)c4ccccc4n23)cc1` it is -2.27%.
The figure for `CCc1ccccc1NC(=O)Cn1ccn(Cc2ccccc2)c(=O)c1=O` is 26%; for `COc1cccc(CNCCCSc2nnnn2C)c1OC` it is -3.99%.
